Source: the supplement of paper PMC3724861
The list shows a part of the results.

System: T1, Caupolican (Caup) homeodomain DNA-binding domain
T1 sequence: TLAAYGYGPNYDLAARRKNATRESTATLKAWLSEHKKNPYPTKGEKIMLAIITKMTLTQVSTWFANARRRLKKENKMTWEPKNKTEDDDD
Test: PBM E-score (8-mer, recovered from the published 9-mer minima) (E-score (dimensionless, -0.5 to 0.5)); Drosophila protein; higher = stronger relative binding preference, active = 0.31 or more
Outline: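 Caup's homeodomain DNA-binding domain (residues 214-303) was made by in vitro transcription and translation and applied at 100 nM to custom-designed protein binding microarrays. Each value is an enrichment score that gives relative binding preference for a short DNA word, with higher meaning stronger. The 8-mer values were recovered from published 9-mer scores, each of which was the minimum of its two constituent 8-mer scores. A cutoff of 0.31 marks candidate sites.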

PBM E-score, ≥ 0.136:
AACGGATT

PBM E-score, inactive:
CGTGTTTC 0.236
ATATCAGA 0.171
TCCTCCGA -0.137
GTAGATAA 0.14
CCGGCGGA -0.235
CATCAGAG -0.063
GCTTGAAC 0.0708
AGCAATCC -0.0615
TACAAAGA 0.239
CCGGACCG -0.239
ACCGATAG -0.0563
CAAGTGCC -0.052
GGGACACC -0.131
ACGTTGTA 0.291
TACTGTGA 0.101
ACTGGGCG -0.167
CTCGGGAC -0.137
AACTGAAG 0.0247
AGACAGTC -0.0501
AGCCAGAA -0.135
CCTCGGAG -0.18
GCAATGGC -0.249
TCAAGGCA -0.0611
AGGTCCAA -0.0444
CAGGATAA 0.0789
CTCATTTA 0.049
ATGCGGGG -0.184
CCAGGAAC -0.0704
CAATATTC 0.0827
AACGCTAT 0.0403
ACGATCCT 0.0589
CAGGGCCA -0.19
CTGATTTC -0.0056
CACACCCG -0.104
GCCAAAAC -0.0419
TAATAAAA 0.189
CTCAGCCA -0.149
CGAATGCG -0.0687
TAGTCGCA 0.0299
AAGAGGGC -0.133
ACTGTCCC -0.0217
CAAATTAG 0.165
GGTAATGA 0.0999
AAGGATGG 0.00046
GGGCTGCA -0.163
ATCGACCC -0.0225
GGCTGTAC 0.108
ATCGTCGA -0.0683
GCTAGAAC -0.0611
CCTGGCCA -0.188
AGGTCAAC 0.0375
GTCTCTCA -0.0484
ATAATACC 0.175
CCTGGAAC 0.0117
CCAGATCA 0.0433
GGGTGCAC -0.171
CGTCCGCC -0.227
GATGCGGA -0.0221
GAAGCGTC -0.161
CCTCCTCG -0.165
GAACGGGC -0.176
AGTCTGCG -0.0775
CAGGTACC -0.0215
TCTCCGCA -0.158
CACGCAGA 0.0614
AAAAACGA 0.0759
TATGGGAA 0.0102
AGTGGGTA -0.0663
GTTGGGGA -0.0561
AGCATCCC -0.166
CACATGGG -0.0556
AGACCGAT -0.00106
ACAGGACC -0.0967
CCTCCCGC -0.221
AATGAATT 0.121
GAAGAACC -0.0916
GCTGACCA -0.133
GCGAGACC -0.104
AGGGATCC -0.212
ATGTCGCG 0.218
CGAGAACG -0.0728
GGTATCAA 0.133
AGCACGAG 0.0197
AAGAGAGT -0.0869
AACCAGCA 0.0382
CCACAACC 0.0376
CTAGAGCC -0.095
CGGAAAAG -0.0486
AACCTTTC -0.0507
ATTGTCGG 0.0859
ATTTTTGC 0.07
GCGTGAGA -0.142
CCACTCAC -0.0749
GACCGCGA -0.252
CATCCTGC -0.0253
GCGATTAC 0.0231
GGTACAGA 0.152
CAAGATAG 0.0618
CACTCTCC -0.107
CCTTAATA 0.00761
CCCCCCCA -0.346
ACTGGTGA -0.00248
GATGCATA 0.0414
CCAAGCGA -0.102
AAGCGCGG -0.0718
GCAAGCCC -0.142
ATAGCAAA 0.147
CATGCGGC -0.0576
GTATGAGA 0.0966
CATGGTCC -0.0724
ATACTGCG -0.0189
ATCCCATA 0.0616
CAAGTTGG -0.0472
CCCGACAC 0.0286
ATGGGTCA 0.0229
ACAAATTA 0.177
ATCTCCCC -0.153
AGTGCATA 0.069
ACTACGCA -0.0384
AACGGGCC -0.162
CAGAGAGC -0.199
GGTTCGAC 0.0215
CAACCATC 0.0233
CCCTTAGA -0.161
CGTTCTCA -0.0787
TGACACAA 0.259
CCATCCCA -0.104
AATGTGTC 0.23
CTCACACA 0.0138
GAATGTCA 0.169
CCAGACCA -0.0928
GCTAGAAA -0.0799
AGAATTAC 0.168
ACGCTAGC -0.0771
TAGCCATA 0.0977
ATGGGAGC -0.104
CTATGCAC 0.00461
TGAGCCAA -0.0599
GACACACC 0.165
CAACTGGA -0.00289
AAGAATTG 0.141
GATGCGCC -0.127
CCGCGCGC -0.229
AACCGTGG -0.097
ACCCAGTA -0.061
CATTAATA 0.133
ACGTCTCG 0.0511
GTGGAGTA 0.0706
ACGAACGG 0.0258
AATAGAGA 0.041
CATCCCCA -0.108
CAAGCGAG 0.0125
GCATAGAA -0.0116
AAGCAGCT -0.0382
ATGTGCAC 0.14
AGAGTCCC -0.228
GGTAGACA 0.117
ATCTCTTA 0.063
CTGCTGCC -0.229
ACCGCCAC -0.123
ACTGCAGC -0.106
ATCGGCAA -0.052
AAGGAATT -0.0309
GCCGCCCC -0.333
AGGTGAAG -0.0405
TGTCGACA 0.294
GCACCGCA -0.175
ACAGATTC 0.156
ATTTACAG 0.137
AAGTGTCT 0.136
AAAGAGTC -0.127
CCGCTTAA -0.0634
ACCTGGGG -0.275
CGACGCCC -0.161
CCAGAGGC -0.181
CTGCATTA -0.0833
TAAGAGTA 0.0941
CATGATCA 0.221
AGGCTATA -0.0327
GGACTGGA -0.0503
AGATATTA 0.074
CCAGCCAG -0.216
TACCTTCA 0.011
GCGATCCA -0.0156
AGACGCCA -0.132
AAACTCGG -0.0526
ACCCTGGG -0.105
GATCAAGA 0.00652
CACCGAGG -0.124
AACGCGGG -0.133
AATGAAAC 0.136
CATCAGCC -0.0987
CGACTAAC 0.147
GAACCCCA -0.0928
CGTTTGGC -0.135
ATGGCCGC -0.253
AGGTTGTG 0.133
CACGTAGA 0.0343
CCCATTCA -0.0195
ACTTGAAA 0.0679
ACCGATGA 0.0195
ATACAACC 0.258
TGAAATCA 0.0653
CCGGGTCA -0.18
CACATTTA 0.18
CAGAAAGA 0.02
CCTAGCTA -0.0292
CCTACCAG -0.0695
GCATACTA 0.0358
AACAAGGA 0.302
CCTGGGCG -0.185
GGAGCTCC -0.322
ATTTATCG 0.0483
CGAGTGCC -0.144
ACCTGGCC -0.17
CATATACG 0.215

PBM E-score, ≥ 0.0774:
ATGAGGAA

PBM E-score, active:
ACTACAAC 0.363
ACTTGTTC 0.33
GTACATAA 0.361

PBM E-score, ≥ 0.0163:
ACCTCCTG
